Data reported in the supplement of paper PMC11417369.
± gives the standard deviation of the averaged measurements. The list shows a part of the results.

tested on: PfAP2-I AP2 domain 3 (GST-tagged); assay: gcPBM binding intensity (ln(normalized median fluorescence intensity)); higher = stronger DNA binding
In short: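 GST-fused DNA-binding domains of P. falciparum, expressed in E. coli, were applied at about 25 μg on average for 1 h to an Agilent 4 × 180k array of primer-extended double-stranded 36-bp intergenic genomic probes and negative controls. Binding intensity is the highest Masliner-normalised natural-log median intensity across replicate spots of either probe orientation, measured with Alexa488 anti-GST antibody and a 488 nm scan.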

Row | Sequence | gcPBM binding intensity (ln)
1 | TGATACTGCAAAAAATATAAAAAAATAATAAAATAA [CACACA_negctrl_site791] | 7.92 ± 0.42
2 | TATATATATATAAGATGTACCCTTTGAAATAATAAT [XGTACX_site7215] | 9.09 ± 0.13
3 | ATTAGTTTACACATATGTACATATATTACAACAAAA [XGTACX_site275] | 8.12 ± 0.49
4 | GGTGATATAATATATACATGCACATATATATTATTA [TGCATGCA_site970] | 8.46 ± 0.59
5 | TTACAAAAAAATAATTGTACATACAATTTCTGTTAT [XGTACX_site877] | 7.64 ± 0.38
6 | TTTATATGTATGAAGTGTACACATATATTGTATTTT [XGTACX_site5731] | 8.04 ± 0.49
7 | TATGGAAATATATATTGTACGTATGACCTTTAAAAA [XGTACX_site3935] | 7.85 ± 0.49
8 | ATTATATCATCTAAAACATGCACACATATGTACTCT [TGCATGCA_site949] | 8.29 ± 0.69
9 | GTTGAGAAAATATGTGCATGTCAGGTTAAATTTTTA [TGCATGCA_site744] | 8 ± 0.63
10 | TAAGATAAAAAAAATGCATGTTCTTATAATATTGTC [TGCATGCA_site939] | 8.27 ± 0.75
11 | ATATATATATATATATGTACATAATATATGTCCTAT [XGTACX_site5087] | 9.29 ± 0.32
12 | GTAAGCATAAATATATGTACATACATATACAGATAT [XGTACX_site3361] | 7.82 ± 0.33
13 | TTCTGTATAATATAAAAACAAAAATTAAATTAAAAC [CACACA_negctrl_site81] | 7.63 ± 0.54
14 | CATAAAATATAAAACACACACACATATATATATATA [CACACA_site223] | 9.26 ± 0.27
15 | TATTATATAAATATACGTACATATACTAACCTTTTA [XGTACX_site6317] | 7.83 ± 0.46
16 | AAATTTTTTATTCTAATTAATATTTACACAATATAT [TGCATGCA_negctrl_site376] | 7.61 ± 0.45
17 | TTCCATGTAGGACATGCATGCAGTTTTTAAAATATT [TGCATGCA_site481] | 8.21 ± 0.64
18 | TATGACATATCCTGTAGTACAACGTATATATAAGAT [XGTACX_site1327] | 7.93 ± 0.49
19 | ATATATAACGTGCACACACACATTTACGTATGAATA [CACACA_site6948] | 10.975 ± 0.007
20 | AATAAAAATAATGAATGTACATATATATATACAATA [XGTACX_site3342] | 7.61 ± 0.3
21 | TTTTATTAAAACCACGCATGCAGAGGAAACGGTGAG [TGCATGCA_site1029] | 8.45 ± 0.64
22 | ATATATAATTTTTGCTGTACACAAAATATTAATTTA [XGTACX_site2057] | 8.21 ± 0.36

Row | Sequence | gcPBM binding intensity (ln)
23 | TTTATGTATTTTTATGCACACATGCGTGGCTTATAT [CACACA_site4374] | 10.79 ± 0.064
24 | TACGGACATACTAACGGACACACGTAAGAAAAAAAA [CACACA_site602] | 7.88 ± 0.54
25 | TTTTTTTCAATATTTGCACACGATTATAATATTTAA [CACACA_site2237] | 9.415 ± 0.035
26 | AATATTCGTAATTGATGTACTTGTAATTCATACATT [XGTACX_site8314] | 7.67 ± 0.31
27 | TTTATAATAAAATTTTTACACACTTTAAAAAAAAAA [CACACA_site8070] | 7.79 ± 0.4
28 | AATAAATATCTGTACACACACAAATAAATACATATC [CACACA_site5108] | 8.04 ± 0.35
29 | TATAATAAAAATAATACACACATATATAGCAATCGT [CACACA_site3241] | 8.28 ± 0.54
30 | CAGAATAATTTTATCGGTACACACTGTATGCATAAT [XGTACX_site736] | 8.04 ± 0.64
31 | ACAGGAGTATAACCTCGTACAAAATATATTTACCAT [XGTACX_site5805] | 7.83 ± 0.83
32 | TCTTTAAAAAAAAAAAAAAAAAATTCCAAATAAATA [TGCATGCA_negctrl_site538] | 7.02 ± 0.49
33 | CCTAGAAAAGCATATACACACGCGCAAAATAAAATT [CACACA_site4902] | 8.16 ± 0.59
34 | TATATATATACATAATGTACAAGAATTTGTATTGAA [XGTACX_site627] | 8.52 ± 0.35
35 | TAAAAATAAAGAAAATGTACATAAATAAAAATAAAG [XGTACX_site2279] | 8.14 ± 0.69
36 | ATTTTTTTTTTTTTTTTAAGACAAACTCTTAATTTA [CACACA_negctrl_site1389] | 7.53 ± 0.46
37 | ATTCCAAAAAAATCAAGTACTAATTTATTATATTAC [XGTACX_site3920] | 7.58 ± 0.54
38 | TATTTTTTTAAGTGCAGTACACTTAATTTCCCCCAA [XGTACX_site7328] | 10.4 ± 0.33
39 | AAAAAAAAAAAAAAAAAAATATATTATATATATATA [XGTACX_negctrl_site467] | 9.51 ± 0.16
40 | TTTTTCACATTTCAGTGTACATTTTAATCATATATA [XGTACX_site915] | 8.04 ± 0.71
41 | CGACAAAAATTTTACAGTACAGTATAAACCTTTTTA [XGTACX_site290] | 7.62 ± 0.43
42 | TACACACATTACAGATGTACATAAAATTAAAAAAAT [XGTACX_site1804] | 8.05 ± 0.54
43 | TCAAAAAATATATTTGCACACTCAAAAAAAAAAAAA [CACACA_site860] | 9.76 ± 0.55
44 | TATATATATATAAATACATGCATATAATTAATCCAT [TGCATGCA_site400] | 8.99 ± 0.028

Row | Sequence | gcPBM binding intensity (ln)
45 | CTTTTATATGTCTAATGTACGGGCAATATAAATTTG [XGTACX_site8323] | 7.91 ± 0.38
46 | CATATTGAATATTTAACACACATTTCGCTTAATTCA [CACACA_site2086] | 7.68 ± 0.47
47 | ACACATTATAAAACTGTCGCTCATAAAGAAGAATGA [CACACA_negctrl_site999] | 7.77 ± 0.81
48 | GCAACAAAAAATCAGACATGCATTTTAAAATGAATA [TGCATGCA_site846] | 7.4 ± 0.58
49 | GAATGAATTGTTATTAGTACACATGTGAATTATAAA [XGTACX_site6790] | 7.84 ± 0.45
50 | TATAAAAAAAAAATTTGTACATAATAATATATATAT [XGTACX_site2074] | 8.88 ± 0.13
51 | TTATATATAAAATACTGTACATTTAATTGATGGTTT [XGTACX_site2073] | 7.71 ± 0.39
52 | TATATAAATTTAATAACACACATATAAAAATGAATT [CACACA_site2366] | 7.61 ± 0.55
53 | AAAAAGCAGGATTATACACACAAATATATATATGTT [CACACA_site1077] | 7.51 ± 0.67
54 | ATATGTTTACGTAAATGTACACGTCAGTATATTTCT [XGTACX_site8199] | 7.96 ± 0.54
55 | ATATATATATAACATTGTACACACAAAGAAATAATA [XGTACX_site6440] | 9.01 ± 0.11
56 | TTTTATAATAAGTATGTAAAAATTATATATATATAT [CACACA_negctrl_site711] | 9.22 ± 0.18
57 | AACTTGTATATATACACACACACACTATCTTTTTTT [CACACA_site8601] | 7.96 ± 0.81
58 | ATTTTTTTTTTTTTTATTCCCCTTTCGAAAAAAACC [CACACA_negctrl_site1139] | 8.3 ± 0.54
59 | TCAAATAATAAGTATGCATGCTATATTTATATATAC [TGCATGCA_site920] | 7.77 ± 0.76
60 | AAACGTACATAATACACACACATGTATACCTATAAA [CACACA_site7051] | 8.3 ± 0.35
61 | TACATTTTACTTGTTACACACATATAAAATTAACCA [CACACA_site2922] | 7.82 ± 0.5
62 | AGAAAAAAAAAAAGTACACACATATAATATATATAT [CACACA_site2973] | 8.885 ± 0.078
63 | AGTTAATGAATAGGCACACATATATCTGTATAAATA [CACACA_site4448] | 7.95 ± 0.57
64 | ATGAATAAATAGGTCACACACAAATATATATAAATA [CACACA_site2416] | 7.82 ± 0.59
65 | TTGTTCGATATATGCACACAGTTTTGTTATTTTTCC [CACACA_site4972] | 9.19 ± 0.37
66 | CACTACACTGTTAATAGTACATATATTTAAAAAAAA [XGTACX_site7371] | 7.95 ± 0.42

Row | Sequence | gcPBM binding intensity (ln)
67 | AAAAGGTATAGAAACACACACACGTGAATATAGTTT [CACACA_site1905] | 7.49 ± 0.87
68 | CACACCCACCAACACACACACAAAAAAAAAAAGAAA [CACACA_site500] | 8.045 ± 0.021
69 | ATATTTTATTTTAATACACACAAGTTATATAATCAC [CACACA_site780] | 7.96 ± 0.45
70 | AAAAAAAACGGACACACACACATAAATATATATAAA [CACACA_site4260] | 8.03 ± 0.042
71 | ACATATGTTTTATGTAGTACTTATTTATTATTATAT [XGTACX_site7528] | 7.84 ± 0.47
72 | TACAAATTTATATAAAGTACAAAAAATAATAAAAAT [XGTACX_site7355] | 8.1 ± 0.52
73 | AAAAAAAAAAAAAGTGCACACATAAAAATATGATCT [CACACA_site8090] | 10.1 ± 0.27
74 | ATATTGTAGATATTGTGTACATATTTTACAACTTTT [XGTACX_site7621] | 7.61 ± 0.42
75 | TATGTACACCCATATACACACCTCTATAATATATAT [CACACA_site4563] | 8.38 ± 0.18
76 | ACATCATATTAAGAAAGTACAAAAAGAGAACATATA [XGTACX_site1268] | 7.98 ± 0.61
77 | AAACAAAATTTATTTCAAAGTTAATAATTTTTATGT [CACACA_negctrl_site232] | 7.3 ± 0.57
78 | TCATTAAAAACTAAAAGTACTCAATATTATGAACAT [XGTACX_site7807] | 7.8 ± 0.42
79 | TAAAAAAATAAATATACACACATATATATATATATA [CACACA_site1089] | 9.44 ± 0.59
80 | TGTAGAAATGGGTGCACACACATATAAAATCTATAT [CACACA_site7224] | 10.4 ± 0.59
81 | GGATTTATTATATATACACACATACAGATATATATA [CACACA_site5222] | 7.88 ± 0.38
82 | CATATATATTTGTTCACACACACACTAGAAAAAAAA [CACACA_site5380] | 8 ± 0.33
83 | ATAAAAAATAAAATAAATAAAAAATATTTACCCTTA [TGCATGCA_negctrl_site396] | 7.21 ± 0.35
84 | AATATTTTTTAAATGTGTACATAGGTATAGCACACA [XGTACX_site8690] | 8.93 ± 0.26
85 | AATTATTCTCTTTTCATTTGAACAATATGCTTAAAA [CACACA_negctrl_site995] | 7.89 ± 0.73
86 | GACTGCACTTTAAGCACACAAATATATTTTTTTTAT [CACACA_site1249] | 9.58 ± 0.17
87 | ACACATTCGAAAAATTGTACATATATAACAGAATAT [XGTACX_site7106] | 7.91 ± 0.26
88 | AGTCATATAAATAGTAGTACTGTGTGTGAAGAAAAA [XGTACX_site5056] | 8.14 ± 0.68
